# Results from the supplement of paper PMC7826260.
# This is one part of the list. The data describe in vitro nicking of single-stranded DNA by Rep domains for 1 h at 37 °C with 3 µM enzyme; only the middle of the 90-letter strands is printed. The score is log2 (uncut reads / reads without enzyme); more negative means more cut, near 0 not cut, and no call is made. Reads are scaled to the total; where an enzyme cuts many sequences, the uncut ones exceed 0.
# Test system: T1, Rep nickase domain of maize striate mosaic virus
# T1 sequence (protein, residues 1-117, tag omitted): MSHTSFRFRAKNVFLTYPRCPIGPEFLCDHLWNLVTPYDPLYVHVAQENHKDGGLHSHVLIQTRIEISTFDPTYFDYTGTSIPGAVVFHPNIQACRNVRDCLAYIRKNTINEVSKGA
# Experiment: uncleaved DNA left, log2 of reads against the no-enzyme library (log2 ratio); higher = less cleavage (more negative = more Rep cleavage of the k-mer); sequences stand for … in CTCGTCCG…ACCGGAGA
# Description: (§1)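 A pool of 90-nt single-stranded DNAs with seven random bases just before the constant AC of the nick site (name = the seven bases) was cut by 3 µM recombinant His6-SUMO-tagged Rep nickase domain (300 nM DNA, 50 mM HEPES pH 8.0, 50 mM NaCl, 1 mM MnCl2, 1 h, 37 °C, three replicates). Uncut DNA was amplified and sequenced.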
row,Sequence,uncleaved DNA left (log2)
1,TGGAGTG,-0.429
2,TGCAACC,0.277
3,TCGCTTG,-0.329
4,CAATTAA,-0.991
5,TCATAAG,-1.04
6,TTATTTA,0.239
7,AAGCGAG,-0.0924
8,TTCCTAT,0.00391
9,GGCTGGG,0.00262
10,CACAAAG,-0.969
11,CGTTGCC,-0.912
12,GACAAGC,-0.238
13,CTCAGTT,-0.587
14,TATAAGT,-0.858
15,GCCCGAA,0.354
16,AATTAGA,-1.16
17,CGATTTT,-0.271
18,GTGTTTG,0.0807
19,ACAAAAA,-0.698
20,GTTTCCT,1.75

row,Sequence,uncleaved DNA left (log2)
1,ACAAGAT,-0.147
2,ACATGAT,-0.384
3,AGCGCAT,1.34
4,ACGTGAC,-0.269
5,AGATCTT,1.1
6,GAATCCC,0.573
7,CCTGTCG,-0.941
8,GCCAGGG,-0.265
9,CTCATAC,-0.821
10,AGACGGC,0.349
11,AACCGAG,0.311
12,CCCCAAC,-0.921
13,GATCTCA,1.06
14,GGTCCTA,1.88
15,ATTCCGT,-0.969
16,GTGTGAT,1.66
17,CATATCA,0.187
18,CGTATTC,-0.633
19,TTATGGT,0.903
20,TATGGAA,1.09

# Test system: T2, Rep nickase domain of porcine circovirus 2
# T2 sequence (protein, residues 2-116, tag omitted): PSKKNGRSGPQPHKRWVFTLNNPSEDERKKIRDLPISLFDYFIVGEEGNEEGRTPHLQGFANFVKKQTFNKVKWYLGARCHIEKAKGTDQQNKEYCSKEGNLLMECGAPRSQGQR
# Experiment: as above
# Description: as §1
row,Sequence,uncleaved DNA left (log2)
1,TGGAGTG,0.0977
2,TGCAACC,-1.74
3,TCGCTTG,0.0489
4,CAATTAA,-0.303
5,TCATAAG,0.213
6,TTATTTA,-0.136
7,AAGCGAG,0.181
8,TTCCTAT,0.122
9,GGCTGGG,0.116
10,CACAAAG,0.266
11,CGTTGCC,-0.46
12,GACAAGC,0.134
13,CTCAGTT,-0.288
14,TATAAGT,-1.16
15,GCCCGAA,0.255
16,AATTAGA,-0.199
17,CGATTTT,-3.08
18,GTGTTTG,0.0485
19,ACAAAAA,0.16
20,GTTTCCT,-0.171

row,Sequence,uncleaved DNA left (log2)
1,ACAAGAT,0.15
2,ACATGAT,-1.26
3,AGCGCAT,0.0941
4,ACGTGAC,0.0889
5,AGATCTT,-2.9
6,GAATCCC,-2.03
7,CCTGTCG,-0.0405
8,GCCAGGG,0.185
9,CTCATAC,-0.0997
10,AGACGGC,0.116
11,AACCGAG,0.184
12,CCCCAAC,-0.25
13,GATCTCA,0.128
14,GGTCCTA,0.0392
15,ATTCCGT,-0.176
16,GTGTGAT,-0.875
17,CATATCA,0.041
18,CGTATTC,0.0425
19,TTATGGT,-0.803
20,TATGGAA,0.193

# Test system: T3, Rep nickase domain of tomato golden mosaic virus
# T3 sequence (protein, residues 1-124, tag omitted): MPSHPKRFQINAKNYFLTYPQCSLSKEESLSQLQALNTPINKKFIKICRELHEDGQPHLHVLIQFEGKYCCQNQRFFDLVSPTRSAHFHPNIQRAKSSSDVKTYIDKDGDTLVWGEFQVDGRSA
# Experiment: as above
# Description: as §1
row,Sequence,uncleaved DNA left (log2)
1,TGGAGTG,-0.146
2,TGCAACC,0.0577
3,TCGCTTG,0.118
4,CAATTAA,-0.0856
5,TCATAAG,0.0458
6,TTATTTA,0.0145
7,AAGCGAG,0.101
8,TTCCTAT,0.222
9,GGCTGGG,0.124
10,CACAAAG,0.115
11,CGTTGCC,-0.289
12,GACAAGC,0.0204
13,CTCAGTT,-0.33
14,TATAAGT,0.0771
15,GCCCGAA,-0.103
16,AATTAGA,0.0188
17,CGATTTT,-0.0705
18,GTGTTTG,-0.0452
19,ACAAAAA,0.00789
20,GTTTCCT,0.0659

row,Sequence,uncleaved DNA left (log2)
1,ACAAGAT,0.099
2,ACATGAT,0.0556
3,AGCGCAT,0.222
4,ACGTGAC,0.00833
5,AGATCTT,-0.173
6,GAATCCC,-0.193
7,CCTGTCG,-0.178
8,GCCAGGG,0.0251
9,CTCATAC,-0.0601
10,AGACGGC,0.0674
11,AACCGAG,-0.0186
12,CCCCAAC,-0.176
13,GATCTCA,0.118
14,GGTCCTA,0.129
15,ATTCCGT,-0.0449
16,GTGTGAT,0.0653
17,CATATCA,-0.00542
18,CGTATTC,-0.143
19,TTATGGT,-0.111
20,TATGGAA,0.184
